One test relates to HSkMC. Put plainly: cytotoxicity call (relative viability < 0.9). Particulars: 10 µM.
The next test deals with HepG2. Put plainly: cytotoxicity call (relative viability < 0.9). Particulars: 10 µM.
The subject of a further test is S. aureus RN4220. Put plainly: growth inhibition call (relative growth <= 0.2). The conditions noted are these: 50 µM.

The structures appear in SMILES notation. The list shows a part of the results.

`C[C@@H]1CN([C@H](C)CO)C(=O)c2cc(NC(=O)Cn3cnnn3)ccc2O[C@H]1CN(C)S(=O)(=O)c1ccccc1`: the cytotoxicity call with HSkMC and in the test with HepG2 was “inactive” each time. Moreover, the growth inhibition call with S. aureus RN4220 was “inactive”.

Turning to `C=CC[C@@H](CC(=O)N(CCO)Cc1ccccc1)C(=O)N[C@@H](COC(=O)[C@H](CC=C)Cc1ccc(F)cc1)Cc1c[nH]c2ccccc12`, the cytotoxicity call in the test on HSkMC and in the test with HepG2 was “active” throughout. Besides, the growth inhibition call in the test on S. aureus RN4220 was “inactive”.

Consider `C[C@@H]1CCCCO[C@@H](CN(C)C(=O)Nc2ccccc2)[C@@H](C)CN([C@H](C)CO)C(=O)c2cc(NC(=O)C3CCCCC3)ccc2O1`, for which the cytotoxicity call with HSkMC and in the test with HepG2 was “inactive” throughout. Further, the growth inhibition call with S. aureus RN4220 was “inactive”.

As for `COc1ccc(S(=O)(=O)Nc2ccc3c(c2)C(=O)N([C@H](C)CO)C[C@@H](C)[C@H](CN(C)C(=O)Nc2ccc4c(c2)OCO4)OCCCC[C@@H](C)O3)cc1`, the cytotoxicity call in the test on HSkMC and with HepG2 was “inactive” in each case. Further, in the test on S. aureus RN4220, the growth inhibition call was “inactive”.

As for `C=C(NC(=O)C(=C)NC(=O)c1csc(C2=N[C@H]3c4csc(n4)[C@H]4NC(=O)c5csc(n5)[C@H](C(C)(O)[C@@H](C)O)NC(=O)[C@H]5CSC(=N5)C(=CC)NC(=O)[C@H]([C@@H](C)O)NC(=O)c5csc(n5)[C@]3(CC2)NC(=O)[C@H](C)NC(=O)C(=C)NC(=O)[C@H](C)NC(=O)[C@H]([C@H](C)CC)N[C@@H]2C=Cc3c([C@H](C)O)cc(nc3[C@H]2O)C(=O)O[C@@H]4C)n1)C(N)=O` (some centres undefined), the cytotoxicity call in the test with HSkMC and with HepG2 was “active” each time. Moreover, in the test on S. aureus RN4220, the growth inhibition call was “inactive”.

`COc1ccc(NC(=O)Nc2ccc3c(c2)C(=O)N([C@@H](C)CO)C[C@H](C)[C@@H](CN(C)Cc2ccc(C(F)(F)F)cc2)OCCCC[C@@H](C)O3)cc1`: the cytotoxicity call in the test on HSkMC is “inactive”. Besides, the cytotoxicity call with HepG2 was “active”. Moreover, in the test on S. aureus RN4220, the growth inhibition call is “inactive”.

Take `O=C(C[C@H]1C[C@H]2c3cc(NC(=O)c4ccc5c(c4)OCO5)ccc3O[C@H]2[C@@H](CO)O1)NCCN1CCCCC1`: the cytotoxicity call in the test on HSkMC and in the test on HepG2 was “inactive” in each case. Further, the growth inhibition call with S. aureus RN4220 is “inactive”.

In the case of `CN(C)CCCCNC(=O)[C@H]1C[C@H]2C(=O)N[C@@H](CCCCN(C)C)C(=O)N2[C@H]1c1cccc(OCCO)c1`, the cytotoxicity call with HSkMC and in the test on HepG2 was “inactive” in each case. The growth inhibition call with S. aureus RN4220 is “inactive”.

Take `C[C@@H]1CN([C@@H](C)CO)C(=O)Cc2cc(NC(=O)C3CCCCC3)ccc2O[C@H]1CN(C)Cc1ccc(Oc2ccccc2)cc1`: the cytotoxicity call with HSkMC and with HepG2 was “inactive” throughout. In addition, in the test on S. aureus RN4220, the growth inhibition call was “inactive”.

As for `C[C@@H]1CN([C@@H](C)CO)C(=O)Cc2cc(NC(=O)CCN3CCOCC3)ccc2O[C@@H]1CN(C)CC1CCCCC1`, the cytotoxicity call in the test on HSkMC and in the test with HepG2 was “inactive” each time. Moreover, the growth inhibition call in the test with S. aureus RN4220 was “inactive”.

Consider `Cc1noc(C)c1S(=O)(=O)Nc1cccc2c1O[C@@H](CN(C)CC1CC1)[C@@H](C)CN([C@@H](C)CO)C2=O`, for which the cytotoxicity call in the test on HSkMC and in the test on HepG2 was “inactive” each time. Further, the growth inhibition call with S. aureus RN4220 was “inactive”.

Regarding `C[C@@H]1CN([C@@H](C)CO)C(=O)c2cccc(NC(=O)Nc3ccc(C(F)(F)F)cc3)c2O[C@@H]1CN(C)S(=O)(=O)c1ccc(F)cc1`, the cytotoxicity call with HSkMC and in the test with HepG2 was “inactive” each time. Moreover, the growth inhibition call with S. aureus RN4220 is “inactive”.

As to `C[C@@H]1CN([C@H](C)CO)S(=O)(=O)c2ccc(C#Cc3ccncc3)cc2O[C@H]1CN(C)C(=O)C1CCOCC1`, the cytotoxicity call in the test on HSkMC was “inactive”. Besides, the cytotoxicity call with HepG2 is “active”. Further, the growth inhibition call with S. aureus RN4220 is “inactive”.

Take `Cc1ccc(S(=O)(=O)Nc2ccc3c(c2)CC(=O)N([C@H](C)CO)C[C@H](C)[C@@H](CN(C)C(=O)Nc2ccc(C(F)(F)F)cc2)O3)cc1`: the cytotoxicity call in the test with HSkMC and in the test on HepG2 was “inactive” each time. Further, the growth inhibition call with S. aureus RN4220 is “inactive”.

`C[C@H]1CCCCO[C@@H](CN(C)C(=O)Nc2ccc(F)cc2)[C@@H](C)CN([C@@H](C)CO)C(=O)c2cc(NS(=O)(=O)c3ccc(Cl)cc3)ccc2O1`: the cytotoxicity call in the test on HSkMC and with HepG2 was “inactive” throughout. Moreover, the growth inhibition call in the test on S. aureus RN4220 was “inactive”.

`CC(=O)N1CSC[C@H]1C(=O)O`: the cytotoxicity call in the test on HSkMC and in the test with HepG2 was “inactive” each time. For the same compound, the growth inhibition call in the test with S. aureus RN4220 was “inactive”.

In the case of `C[C@H]1CN([C@@H](C)CO)C(=O)c2cc(NC(=O)NC3CCCCC3)ccc2O[C@@H]1CN(C)C(=O)Nc1ccc(C(F)(F)F)cc1`, the cytotoxicity call in the test on HSkMC and with HepG2 was “inactive” in each case. Also, the growth inhibition call with S. aureus RN4220 is “inactive”.

Take `COc1ccc([C@H]([C@H](Cc2ccccc2)OC(C)=O)N(C[C@H](/C=C/c2ccccc2)CC(=O)N(C)C)[C@@H](Cc2ccccc2)C(OC)OC)cc1`: in the test with HSkMC, the cytotoxicity call was “inactive”. In addition, in the test on HepG2, the cytotoxicity call is “active”. In the test with S. aureus RN4220, the growth inhibition call is “inactive”.

`COCC(=O)N1C[C@H](C)[C@@H](OC)CN(C)C(=O)c2ccc(NC(=O)c3ccc(OC)cc3)cc2OC[C@H]1C`: the cytotoxicity call in the test on HSkMC and in the test on HepG2 was “inactive” throughout. Moreover, the growth inhibition call with S. aureus RN4220 was “inactive”.

On to `N[C@@H](C(=O)O)c1cc(O)cc(O)c1`, for which the cytotoxicity call with HSkMC and in the test on HepG2 was “inactive” in each case. The growth inhibition call in the test with S. aureus RN4220 was “inactive”.

As to `COc1ccc(S(=O)(=O)N(C)C[C@@H]2OCCCC[C@@H](C)Oc3ccc(NC(=O)c4ccccc4)cc3C(=O)N([C@@H](C)CO)C[C@H]2C)cc1`, the cytotoxicity call in the test with HSkMC and with HepG2 was “inactive” in each case. The growth inhibition call in the test on S. aureus RN4220 is “inactive”.

Consider `CCNc1nc2nonc2nc1NCC`, for which the cytotoxicity call in the test with HSkMC and in the test on HepG2 was “inactive” in each case. The growth inhibition call in the test on S. aureus RN4220 was “inactive”.

As for `COc1cccc(C#Cc2ccc([C@H]3[C@H]4CN(S(=O)(=O)c5ccccc5C)CC(=O)N4[C@H]3CO)cc2)c1`, the cytotoxicity call in the test on HSkMC (human skeletal muscle cells) and in the test with HepG2 was “inactive” in each case. Further, in the test on S. aureus RN4220, the growth inhibition call was “inactive”.

The values are drawn from the antibiotic and cytotoxicity screens of Wong et al. (2023).
